Reference: PubChem BioAssay AID463173 (ICCB-Longwood Screening Facility, Harvard Medical School, 2010)
The campaign covered roughly 52,000 compounds. About 1,700 (3.3%) were called active. Rule as the data show it: active = survival mostly below about 52% (no sharp cut-off); inactive = mostly above about 56%. Some of the results follow.

The molecules below were run on Wild type (assay: S. aureus survival, RN4220 and DeltatarO strains – OD600, teichoic acid synthesis inhibitors, primary screen (AID 463173)). Settings: S. aureus RN4220 wild type/DeltatarO growth, OD600, 18 h, active compounds read low, screened at 18.75 µg/mL (by protocol).

Compound	survival
CCCNC(=O)c1c(NC(=O)c2ccccc2)sc2c1CCC(C(C)(C)C)C2 (stereo not drawn)	active: 2%
Cc1cccc(N2C(=O)N(Cc3cccc(C#N)c3)c3ccccc3S2(=O)=O)c1	inactive: 79%
Cc1ccc(CSc2nc3ccncc3n2Cc2nc(-c3ccccc3C)oc2C)cc1	active: 0%
O=C(CCS(=O)(=O)c1cc(Br)cc2c1N(C(=O)C1CC1)CC2)N1CCN(c2cccc(C(F)(F)F)c2)CC1	inactive: 90%
O=C(Cn1c(=O)n(Cc2ccc(C(=O)NCc3ccc4c(c3)OCO4)cc2)c(=O)c2ccccc21)Nc1ccccc1F	inactive: 91%
COc1ccc(-n2ccn(CC(=O)Nc3ccc(C)cc3C)c(=O)c2=O)cc1	inactive: 85%
CCCc1nnc(NC(=O)C(CC)Sc2nnc3c4ccccc4n(C)c3n2)s1 (stereo not drawn)	inactive: 70%
COc1ccc(CNC(=O)c2sc3nc4n(c(=O)c3c2C)CCC4)cc1	inactive: 86%
CC(C)N(Cc1nc(-c2ccc(Cl)cc2)no1)C(=O)c1ccco1	inactive: 76%
COc1ccc2c(c1)c1c(c(=O)n(-c3cccc(C)c3)c(=O)n1CC(=O)NCc1ccc(C)cc1)n2C	inactive: 82%
COC(=O)c1cc(C)nc2c1c(=O)nc(SCc1ccccc1Cl)n2C1CC1	inactive: 83%
Cc1ccc(OCC(=O)Nc2ccc3nn(-c4ccc(C)cc4)nc3c2)cc1	inactive: 71%
Cc1cccc(CCNC(=O)CCS(=O)(=O)c2cc3c(cc2C)NC(=O)CO3)c1	inactive: 90%
CCc1nnc2c(Nc3ccccc3Br)nc3ccccc3n12	inactive: 88%
CCc1cccc(NS(=O)(=O)c2ccc3c(c2)N(CC(=O)OC)C(=O)CS3)c1	inactive: 81%
COc1ccccc1N1CCN(C(=O)CNS(=O)(=O)c2ccc(Br)s2)CC1	inactive: 135%
CCOC(=O)N1CCC2(CC1)OC(=O)C(C)=C2C(=O)NCc1ccccc1OC	inactive: 71%
Cn1cnc(S(=O)(=O)N2CCC(C(=O)Nc3ccc(Cl)c(C(F)(F)F)c3)CC2)c1	inactive: 88%
Cc1nn(-c2ccccc2)c2sc(C(=O)N(CC(=O)NC3CCCC3)C3CC3)cc12	inactive: 110%
Cc1cc(Cl)ccc1OCC(=O)N(Cc1ccc(N(C)C)cc1)C1CCS(=O)(=O)C1 (stereo not drawn)	inactive: 73%

Compound	survival
CCCn1cc(S(=O)(=O)c2cccc(Cl)c2)c(=O)c2cc(F)c(N3CCCC3)cc21	inactive: 59%
Cc1cccc(C(C)C)c1NC(=O)c1ccc2c(c1)CCCN2S(C)(=O)=O	inactive: 100%
Cc1ccc(NC(=O)CSc2nccn2C2CCCC2)cc1Cl	inactive: 125%
CC1(C)CC(=O)C(C(=O)/C=C/c2ccco2)C(=O)C1	inactive: 102%
CCOC(=O)c1cc(-c2ccc(C)cc2)n(CC(=O)Nc2ccc(OC)cc2OC)c1C	inactive: 92%
Cc1ccc(S(=O)(=O)CCC(=O)N2CCN(c3nc4c(C)c(C)ccc4s3)CC2)cc1	inactive: 79%
Cc1ccc(S(=O)(=O)N(CC(=O)NCCSc2ccc(Cl)cc2)c2cccc(Cl)c2)cc1	inactive: 129%
CCN1CCN(C(c2ccc(F)cc2)c2sc3nc(-c4ccco4)nn3c2O)CC1 (stereo not drawn)	inactive: 131%
CCC(C)NC(=O)c1cnn(-c2cccc(F)c2)c1-n1cccc1 (stereo not drawn)	inactive: 101%
CC(=O)N1CCCC1c1nc2ccccc2n1Cc1ccccc1F (stereo not drawn)	inactive: 85%
COc1ccc(N2CCN(C(c3ccc(F)cc3)c3sc4nc(-c5ccco5)nn4c3O)CC2)cc1 (stereo not drawn)	inactive: 78%
Cc1ccc(OCC(=O)Nc2nonc2-c2ccc(Br)cc2)cc1	inactive: 80%
CCc1cc(=O)[nH]c(SCc2nc(-c3ccc(C(F)(F)F)cc3)no2)n1	active: 0%
O=C(Nc1cccc2c1CCCC2)N1CCOc2ccc(Cl)cc21	inactive: 83%
CC(C)OCCCNC(=O)CN1C(=O)c2ccccc2Sc2ncccc21	inactive: 94%
CCCC(=O)Nc1ccc2nc(SCC(=O)N3CCOCC3)sc2c1	inactive: 86%
CN1c2ccccc2N(C)C1c1cccs1	inactive: 120%
COc1ccc(C(=O)CSc2nccc(=O)[nH]2)cc1	inactive: 112%
Fc1ccc(N2CCN(c3ncnc4[nH]ncc34)CC2)cc1	inactive: 87%
Cc1oc2ncnc(N3CCOCC3)c2c1C(=O)NCc1ccc(Cl)cc1	inactive: 73%

Compound	survival
N#C/C(=C\c1ccc(-c2cccc(Cl)c2)o1)C(=O)Nc1cccc(C(F)(F)F)c1	inactive: 133%
Cc1cc2ncn(S(=O)(=O)c3ccc(S(=O)(=O)N(C)C)cc3)c2cc1C	inactive: 104%
S=C1NCN(CCCn2ccnc2)CN1	inactive: 108%
CCc1nc2ccccc2n2c(-c3ccccc3)c3c(=O)n(C)c(=O)n(C)c3c12	inactive: 61%
COc1ccc(-n2c(=O)c3c4c(sc3n(Cc3ccc(C)cc3C)c2=O)CCC4)c(OC)c1	inactive: 78%
CCc1c(C)nc2nncn2c1Nc1ccc(Cl)cc1	inactive: 100%
CCOc1ccccc1NS(=O)(=O)c1ccc2c(c1)CC(C)N2C(=O)C1CC1 (stereo not drawn)	inactive: 77%
COc1ccc(OC)c(CNC(=O)Cn2ncc3c([nH]c4ccc(C)cc43)c2=O)c1	inactive: 69%
CCC(C(=O)Nc1ccc(C(C)=O)cc1)n1cnc2nc3c(cc2c1=O)CCCC3 (stereo not drawn)	inactive: 63%
COc1cc(C(CC(=O)NCc2ccccc2)N2Cc3ccccc3C2=O)cc(OC)c1OC (stereo not drawn)	inactive: 131%
Cc1cc(C)cc(NC(=O)CCc2nnc3n(C)c(=O)c4sccc4n23)c1	inactive: 72%
Cc1cc(C)n2nc(CNC(=O)c3ccccc3Cl)nc2n1	inactive: 121%
O=C(NCCc1csc(-c2ccc(F)cc2)n1)c1ccco1	inactive: 82%
CC1=C(C(=O)Nc2cc(Cl)ccc2C)C2(CCCCC2)OC1=O	inactive: 80%
CCOc1ccc(NC(=O)C2CCN(c3nc4ccccc4[nH]3)CC2)cc1	inactive: 124%
CCSc1ccc(C(=O)Nc2ccc(-c3nc4ccc(C)cc4s3)cc2)cc1	inactive: 118%
COc1ccc2c(C)c(CCC(=O)NCc3ccc(C)cc3)c(=O)oc2c1	inactive: 79%
COC(=O)c1c(SC)nc2ccccc2c1OCc1ccccc1Cl	inactive: 82%
